Reference: patent publication US9410958B2, “Alkyne-activated fluorogenic azide compounds and methods of use thereof” (The Regents of the University of California, priority 2014, dated 2016)

System: Mycobacterium smegmatis, Corynebacterium glutamicum and Listeria monocytogenes
Assay: Peptidoglycan labeling with cyclooctyne D-amino acids and azido-PEG3-carboxyrhodamine 110
Conditions: 5 mM D-amino acid, copper-free reaction with 20 μM azido-PEG3-carboxyrhodamine 110
Experimental: Metabolic incorporation of 12-14 into the cell walls of the Gram-positive bacteria Mycobacterium smegmatis, Corynebacterium glutamicum and Listeria monocytogenes was tested. The bacteria were grown for one doubling time in the presence of 5 mM 12, 13 or 14, washed to remove excess amino acid, and then reacted with 20 μM commercially available azido-PEG3-carboxyrhodamine 110, a reagent previously used to image alkyne-funtionalized D-alanine derivative (alkDala)-labeled PG under copper-catalyzed conditions. The cells were washed to remove excess probe, fixed, and analyzed by flow cytometry and microscopy (FIGS. 19-21). The fluorescence intensities observed correlated with the relative reactivities of the parent cyclooctynes. […] Thus, cyclooctyne D-alanine analogs 13 and 14 enable PG imaging with the same sensitivity as the earlier methods, but without the need for a cytotoxic copper catalyst.
(C. glutamicum). […] This wash process was repeated twice more.

Compound	fluorescence intensity of labeled bacteria
NC(CNC(=O)OC[C@H]1[C@@H]2CCC#CCC[C@@H]21)C(=O)O (some centres unmarked) [Compound 13]	comparable fluorescence intensity to cells metabolically labeled with alkDala
NC(CNC(=O)OC[C@@H]1[C@@H]2CCC#CCC[C@@H]21)C(=O)O (some centres unmarked) [Compound 14]	comparable fluorescence intensity to cells metabolically labeled with alkDala
